From patent US20260209325A1, “SELECTIVE AND POTENT INHIBITORY ANTIBODIES OF MYOSTATIN ACTIVATION” (SCHOLAR ROCK, INC., priority 2022, published 2026)
Substitutions are numbered along the chain they refer to.

B1: Ab105: anti-pro/latent myostatin antibody; CDR sequences in Table 2d (antibody)
heavy: EVQLVESGGGLVQPGGSLRLSCAASGSAFSSYGMSWVRQAPGKGLELVASIGGTGATYYPDSVKGRFTISRDNAKNSLYLQMNSLRAEDTAVYYCARDLLVRFLEWGHYYGMDVWGQGTTVTVSSASTKGPSVFPLAPCSRSTSESTAALGCLVKDYFPEPVTVSWNSGALTSGVHTFPAVLQSSGLYSLSSVVTVPSSSLGTKTYTCNVDHKPSNTKVDKRV[human IgG4 Fc with S228P (EU numbers) left out]
light: DIVMTQSPLSLPVTPGEPASISCRSSQSLLHSSGYNFLHWYLQKPGQSPQLLIYAASSRAPGIPDRFSGSGSGTDFTLKISRVEAEDVGVYYCMHGGQGPTFGGGTKVEIKRTVAAPSVFIFPPSDEQLKSGTASVVCLLNNFYPREAKVQWKVDNALQSGNSQESVTEQDSKDSTYSLSSTLTLSKADYEKHKVYACEVTHQGLSSPVTKSFNRGEC
B2: Ab108: anti-pro/latent myostatin antibody; CDR sequences in Table 2d (antibody)
heavy: EVQLVESGGGLVQPGGSLRLSCAASGSAFSSYGMSWVRQAPGKGLELVASINSNGGSTYYPDSVKGRFTISRDNAKNSLYLQMNSLRAEDTAVYYCARDLLVGFLQWSHYYGMDVWGQGTTVTVSSASTKGPSVFPLAPCSRSTSESTAALGCLVKDYFPEPVTVSWNSGALTSGVHTFPAVLQSSGLYSLSSVVTVPSSSLGTKTYTCNVDHKPSNTKVDKRV[human IgG4 Fc with S228P (EU numbers) left out]
light: DIVMTQSPLSLPVTPGEPASISCRSSQSLLHSSGHNFLHWYLQKPGQSPQLLIYEVSNRVSGVPDRFSGSGSGTDFTLKISRVEAEDVGVYYCMQQTQYPPTFGGGTKVEIKRTVAAPSVFIFPPSDEQLKSGTASVVCLLNNFYPREAKVQWKVDNALQSGNSQESVTEQDSKDSTYSLSSTLTLSKADYEKHKVYACEVTHQGLSSPVTKSFNRGEC
B3: Ab101: anti-pro/latent myostatin antibody; CDR sequences in Table 2d (antibody)
heavy: B2 heavy with G103R, Q106E
light: B2 light
B4: Ab103: anti-pro/latent myostatin antibody; CDR sequences in Table 2d (antibody)
heavy: B2 heavy with S27Y, A28T, N52T, S53G, N54D, G55A, S57R, L100T, G103R, Q106E
light: B2 light
B5: Ab104: anti-pro/latent myostatin antibody; CDR sequences in Table 2d (antibody)
heavy: B2 heavy with G103K, Q106S
light: B2 light
B6: Ab106: anti-pro/latent myostatin antibody; CDR sequences in Table 2d (antibody)
heavy: B2 heavy with G103R, Q106E, S108A, H109G
light: B2 light
B7: Ab107: anti-pro/latent myostatin antibody; CDR sequences in Table 2d (antibody)
heavy: B2 heavy with L100Q, G103R, Q106E
light: B2 light with E55A, V56G, V60P, M94A, Q95H, Q96A, Y99L, P101H

target: T1, human pro-myostatin (Homo sapiens, UniProt O14793); test: SEC-MALS binding stoichiometry; conditions: full-length mAb
Procedure: A combination of size exclusion chromatography and multi-angle light scattering (SEC-MALS) was used to determine the approximate mass and therefore the oligomeric state of the antibodies and their stoichiometry of binding to human promyostatin. The monoclonal antibody (mAb) or its Fab fragment was mixed with 50 μg of human pro-myostatin at a ratio of 1:1, 2:1 or 3:1 (antibody to antigen) for at least 24 hours at room temperature for immune complexes to form, filtered and injected into an analytical SEC column (Waters HPLC with a Superdex 200 10/300), flowed through a refractive index detector and then a miniDAWN® multi-angle light scattering detector to determine the mass. A full-length human-pro-myostatin with an N-terminal His6 tag (SEQ ID NO: 941) was used to express pro-myostatin in HEK cells. The signal peptide present in the construct is cleaved during biosynthesis. The resulting recombinant human pro myostatin was purified using the His6 tag (SEQ ID NO: 941) and used for the experiment.

Row | Molecule | binding stoichiometry mAb:pro-myostatin
1 | B1 | 2:2 complex and a 1:2 complex

same assay, conditions: input ratio mAb:pro-myostatin 1:1 (peak 1)

Row | Molecule | SEC-MALS Result (kDa)
2 | B1 | 500

same assay, conditions: input ratio mAb:pro-myostatin 1:1 (peak 2)

Row | Molecule | SEC-MALS Result (kDa)
3 | B1 | 298.9

same assay, conditions: mAb:pro-myostatin complex, Peak 1

Row | Molecule | Observed Molecular Weight [kDa] | Predicted Molecular Weight [kDa]
4 | B1 | 500.0 | 485.58

same assay, conditions: mAb:pro-myostatin complex, Peak 1; < / > = observed below / above predicted

Row | Molecule | Difference Observed vs. Predicted [kDa]
5 | B1 | >14.4

same assay, conditions: mAb:pro-myostatin complex, Peak 2

Row | Molecule | Observed Molecular Weight [kDa] | Predicted Molecular Weight [kDa]
6 | B1 | 298.9 | 329.58

same assay, conditions: mAb:pro-myostatin complex, Peak 2; < / > = observed below / above predicted

Row | Molecule | Difference Observed vs. Predicted [kDa]
7 | B1 | <30.7

target: murine pro-myostatin (Mus musculus, UniProt O08689); test: Biacore 8k SPR binding affinity, murine pro-myostatin; conditions: not given
Excerpt: (§1) The Biacore™ 8k SPR system was utilized to evaluate the binding affinity of myostatin antibodies to biotinylated human, murine, and cyno pro-myostatin. Biotin CAPture kit and sensor chips (Cytiva) were utilized in these experiments to immobilize the various antigens, followed by flowing a range of concentrations of each of the test antibodies.

Row | Molecule | Ka [M⁻¹ s⁻¹] | Kd [nM] | Kd (1/s) [s⁻¹]
8 | B1 | 5.99e+06 | 0.46 | 0.000276
9 | B2 | 8.42e+06 |  | 0.00183
10 | B3 | 4.34e+06 |  | 0.00036
11 | B4 | 5.83e+06 |  | 0.00221
12 | B5 | 3.58e+06 |  | 0.000518
13 | B6 | 1.96e+06 |  | 0.000317
14 | B7 | 8.04e+06 |  | 0.000455

test system: not listed separately; test: dexamethasone-induced muscle atrophy mouse model; assay type: in vivo; conditions: dexamethasone treated mice, antibody 3 mg/kg/day; FIG. 6A, 9A
Excerpt: To evaluate in vivo efficacy of the novel myostatin-selective inhibitors disclosed herein, the ability of the antibodies to preserve lean muscle mass was examined in a dexamethasone-induced atrophy mouse model. An excess of glucocorticoids directly stimulates myostatin production via interactions with a glucocorticoid response element in the myostatin promoter, thus inducing loss of muscle mass. As shown herein, antibodies of the disclosure prevented glucocorticoid-induced muscle atrophy.
C57BL6 male mice (n=8) at 13-14 weeks of age were given normal drinking water or water containing dexamethasone at a concentration of 2.5 mg/kg (17.5 grams dexamethasone per liter of drinking water) to induce atrophy. […] Body weight was measured daily. Body composition was measured by qNMR to determine lean mass pre-dosing, at day 7, and at day 14. After 14 days of dexamethasone exposure, the animals were terminated, and body weight and gastrocnemius weight were measured. Terminal blood for each animal was also collected.
C57BL6 male mice (n=8) at 13-14 weeks of age were given normal drinking water or water containing dexamethasone at a concentration of 2.5 mg/kg to induce atrophy. Mice were dosed at day 1 and day 7 with vehicle (PBS), IgG control (“hIgG”) or different doses of the test antibodies, as shown in Table 13. Muscle mass at days −1, 6 and 13 was measured using qNMR. At the end of the study (day 14), serum from each animal was collected and changes in body weight, body composition (qNMR), left and right gastrocnemius weight, and left and right quadriceps weight were measured. Statistical analysis was performed by ANOVA (Dunnett's multiple comparison test).
In a third experiment, antibody doses ranging from 0.3 mg/kg to 10 mg/kg were compared for their effectiveness in attenuating dexamethasone-induced atrophy. C57BL6 male mice (n=8) at 13-14 weeks of age were given normal drinking water or water containing dexamethasone at a concentration of 2.5 mg/kg to induce atrophy. Mice were dosed at day 1 and day 7 with vehicle (PBS), human IgG control (“hIgG”) or different doses of the test antibodies, as shown in Table 14 below. qNMR was used to measure muscle mass at days −1, 6 and 13. At day 14 the study ended, serum was collected and changes in body composition (qNMR), left and right gastrocnemius weight, and left and right quadriceps weight were determined. Circulating myostatin was measured in the serum of a terminal bleed taken at day 14. Statistical analysis was performed by ANOVA (Dunnett's multiple comparison test).
In a fourth experiment, antibodies Ab109 and Ab133 were compared to control human IgG and Ab2 in the same protocol as described above.

Row | Molecule | maintenance of body weight (percent change from baseline)
15 | B1 | to a greater extent than Ab2

target: cyno pro-myostatin (Macaca fascicularis, UniProt Q95J86); test: Biacore 8k SPR binding affinity, cyno pro-myostatin; set-up: species or system cynomolgus monkey; conditions: not given
Excerpt: as §1

Row | Molecule | Ka [M⁻¹ s⁻¹] | Kd (1/s) [s⁻¹]
16 | B1 | 5.26e+06 | 0.000233
17 | B3 | 4.84e+06 | 0.000317
18 | B4 | 6.09e+06 | 0.00154
19 | B7 | 5.85e+06 | 0.000316

target: T1, human pro-myostatin; test: Biacore 8k SPR binding affinity, human pro-myostatin; conditions: not given
Excerpt: as §1

Row | Molecule | Ka [M⁻¹ s⁻¹] | Kd (1/s) [s⁻¹]
20 | B1 | 4.89e+06 | 0.000247
21 | B2 | 5.92e+06 | 0.00105
22 | B3 | 4.37e+06 | 0.000339
23 | B4 | 5.78e+06 | 0.00151
24 | B5 | 3.82e+06 | 0.000381
25 | B6 | 2e+06 | 0.000224
26 | B7 | 5.34e+06 | 0.000319

test system: not listed separately; test: AC-SINS self-interaction (aggregation behavior); assay type: physicochemical; conditions: cutoff: shift of >5 nm in plasmon wavelength
Procedure: Developability profiles may be assessed by well-known parameters. […] In some embodiments, antibodies are tested for aggregation behavior by affinity capture self-interaction nanoparticle spectroscopy (AC-SINS). […] Typically, gold nanoparticles are coated with polyclonal antibodies that are specific for human monoclonal antibodies and the monoclonal antibodies are captured by the conjugates. The polyvalency of the monoclonal antibody conjugates amplifies the attractive self-interactions, i.e., aggregation between the adsorbed antibodies. This leads to reduced inter-particle separation distances and is detected by a change in color of the gold colloid solution, which may be quantified by a change in the wavelength of maximum absorbance (plasmon wavelength). Plasmon wavelength of 530 nm may be used as the reported value for unaggregated gold nanoparticles. Antibodies with a tendency to self-aggregate shift the plasmon wavelength toward the red end of the spectrum. In some embodiments, a shift of greater than 5 nm (i.e., >5 nm) in plasmon wavelength may be used as the cutoff indicative of self-interacting antibodies.
The antibodies were tested for aggregation behavior by affinity capture self-interaction nanoparticle spectroscopy (AC-SINS). Gold nanoparticles were coated with polyclonal antibodies that are specific for human monoclonal antibodies and the monoclonal antibodies are captured by the conjugates. The polyvalency of the monoclonal antibody conjugates amplifies the attractive self-interactions, i.e., aggregation between the adsorbed antibodies. This leads to reduced inter-particle separation distances and is detected by a change in color of the gold colloid solution, which was quantified by a change in the wavelength of maximum absorbance (plasmon wavelength). Plasmon wavelength of 530 nm was used as the reported value for unaggregated gold nanoparticles. Antibodies with a tendency to self-aggregate shift the plasmon wavelength toward the red end of the spectrum. A shift of greater than 5 nm (i.e., >5 nm) in plasmon wavelength was used as the cutoff indicative of self-interacting antibodies.

Row | Molecule | aggregation behavior by AC-SINS
27 | B1 | did not display aggregation behavior
28 | B2 | did not display aggregation behavior
29 | B3 | did not display aggregation behavior
30 | B4 | did not display aggregation behavior
31 | B5 | did not display aggregation behavior
32 | B6 | did not display aggregation behavior
33 | B7 | did not display aggregation behavior
